Test results taken from publication doi:10.1101/2021.04.18.440338.

Molecular target: GST-649-SNAP-IQGAP1 (GST-SNAP-IQGAP1-6His, full length, labelled with SNAP-surface 649) (human), P46940
Experiment: single-molecule step photobleaching
Conditions: remark: other sources report otherwise

stoichiometry N: 2
B1: GST-649-SNAP-IQGAP1 (GST-SNAP-IQGAP1-6His, full length, labelled with SNAP-surface 649) (natural protein)
chain: [letters of about 200 residues not shown]YGIQMPAFSKIGGILANELSVDEAALHAAVIAINEAIDRRIPADTFAALKNPNAMLVNLEEPLASTYQDILYQAKQDKMTNAKNRTENSERERDVYEELLTQAEIQGNINKVNTFSALANIDLALEQGDALALFRALQSPALGLRGLQQQNSDWYLKQLLSDKQQKRQSGQTDPLQKEELQSGVDAANSAAQQYQRRLAAVALINAAIQKGVAEKTVLELMNPEAQLPQVYPFAADLYQKELATLQRQSPEHNLTHPELSVAVEMLSSVALINRALESGDVNTVWKQLSSSVTGLTNIEEENCQRYLDELMKLKAQAHAENNEFITWNDIQACVDHVNLVVQEEHERILAIGLINEALDEGDAQKTLQALQIPAAKLEGVLAEVAQHYQDTLIRAKREKAQEIQDESAVLWLDEIQGGIWQSNKDTQEAQKFALGIFAINEAVESGDVGKTLSALRSPDVGLYGVIPECGETYHSDLAEAKKKKLAVGDNNSKWVKHWVKGGYYYYHNLETQEGGWDEPPNFVQNSMQLSREEIQSSISGVTAAYNREQLWLANEGLITRLQARCRGYLVRQEFRSRMNFLKKQIPAITCIQSQWRGYKQKKAYQDRLAYLRSHKDEVVKIQSLARMHQARKRYRDRLQYFRDHINDIIKIQAFIRANKARDDYKTLINAEDPPMVVVRKFVHLLDQSDQDFQEELDLMKMREEVITLIRSNQQLENDLNLMDIKIGLLVKNKITLQDVVSHSKKLTKKNKEQLSDMMMINKQKGGLKALSKEKREKLEAYQHLFYLLQTNPTYLAKLIFQMPQNKSTKFMDSVIFTLYNYASNQREEYLLLRLFKTALQEEIKSKVDQIQEIVTGNPTVIKMVVSFNRGARGQNALRQILAPVVKEIMDDKSLNIKTDPVDIYKSWVNQMESQTGEASKLPYDVTPEQALAHEEVKTRLDSSIRNMRAVTDKFLSAIVSSVDKIPYGMRFIAKVLKDSLHEKFPDAGEDELLKIIGNLLYYRYMNPAIVAPDAFDIIDLSAGGQLTTDQRRNLGSIAKMLQHAASNKMFLGDNAHLSIINEYLSQSYQKFRRFFQTACDVPELQDKFNVDEYSDLVTLTKPVIYISIGEIINTHTLLLDHQDAIAPEHNDPIHELLDDLGEVPTIESLIGESSGNLNDPNKEALAKTEVSLTLTNKFDVPGDENAEMDARTILLNTKRLIVDVIRFQPGETLTEILETPATSEQEAEHQRAMQRRAIRDAKTPDKMKKSKSVKEDSNLTLQEKKEKIQTGLKKLTELGTVDPKNKYQELINDIARDIRNQRRYRQRRKAELVKLQQTYAALNSKATFYGEQVDYYKSYIKTCLDNLASKGKVSKKPREMKGKKSKKISLKYTAARLHEKGVLLEIEDLQVNQFKNVIFEISPTEEVGDFEVKAKFMGVQMETFMLHYQDLLQLQYEGVAVMKLFDRAKVNVNLLIFLLNKKFYGK
